Read counts are not given, so values of variants with three or more changes are uncertain.
B1: LINE1-full (parent)
chain: UACGUAGGUGGUUUUCCCCUGAUAGUGCUAAGGGGGCCUGGAAGUUUGGACUGGGCAGAGCUCAACACAGCGUGGCAAAGUGGCUGUGGCUAGACUGCCUCUCUGGAUUCCUCGUCACUCAGCAGGGCAUCUCUGAGAGAAAUGCC

Variants of: B1
Experiment: self-cleavage, relative activity (ratio to wild type); higher = more cleavage; in vitro, sequencing; the parent is a self-cleaving ribozyme

| Variant | self-cleavage |
| --- | --- |
| G34A U112C U115A | 1.06 |
| G34C G53A G60A | 0.04 |
| G34C U73C U100C | 2.83 |
| G34C U81A U109C A124G | 1.31 |
| G34U A42U U45C U52A A77U | 0.93 |
| G34U A50G A67U U73A A107G | 0 |
| G34U A50U A57U A77G A107U | 0.07 |
| G34U A57G A69G A78U A141G | 0.71 |
| G34U A59U A77G A121U | 1.57 |
| G34U A67G A79G A117G | 0.3 |
| G34U A67G A92G A129U | 0 |
| G34U A67G A141G | 0.43 |
| G34U A79G U96C | 0.27 |
| G34U A79U U96C U100C U102C A138G | 0.09 |
| G34U A124G A140G | 0.2 |
| G34U C99U U100C U104A | 1.05 |
| G34U G53U A79G A121C A136U A141G | 1.18 |
| G34U G72A U108C | 0.44 |
| G34U U45C U46A | 1.67 |
| G34U U96A A141G | 0.06 |
| G34U U115C A136G | 2.33 |
| G35A A42G U62C A141G | 0.05 |
| G35A A57U U109C A142G | 0.06 |
| G35A A69G A79G | 0 |

| Variant | self-cleavage |
| --- | --- |
| G35A A94G A107G | 0 |
| G35A A94G A138U | 0.12 |
| G35A A94G C113U | 0.1 |
| G35A A94U U109A | 0.18 |
| G35A A117G U132C | 1.24 |
| G35A C71U A107G | 0.85 |
| G35A G36A U45C U62C A138G | 0.02 |
| G35A G54A U96A A142G U143C | 0.01 |
| G35A U39A A141G | 1.03 |
| G35A U39A U47A A94G U134C A141G | 0.22 |
| G35A U45A U46A | 0.76 |
| G35A U47A U143A | 1.06 |
| G35A U62C A136G | 0.02 |
| G35A U73C U115A | 1.49 |
| G35A U112C U143C | 0.85 |
| G35C U46C U96C U130C A142G | 0 |
| G35U A42G A65U A94U A136G | 0.04 |
| G35U A43G U115C A142G | 1.46 |
| G35U A43U A107G | 1.19 |
| G35U A57G U96G | 0.1 |
| G35U A65G U96A | 0.02 |
| G35U A77U U134G | 1.69 |
| G35U C37U A65G | 0 |
| G35U C56U U62A U85C | 0.03 |

| Variant | self-cleavage |
| --- | --- |
| G35U C101U A129G | 1.24 |
| G35U U39A U85C C113U | 0.11 |
| G35U U46C A121U A136U | 1.49 |
| G35U U46G A117G | 0.29 |
| G35U U52C G86U | 0.05 |
| G35U U62C U87A C90U A92G | 0.03 |
| G35U U73C U87C G144A | 0.32 |
| G36A A43G U109C U130C | 2.83 |
| G36A A57C U108C A141G C146U | 0.11 |
| G36A A57G U62C A64G U130C | 0 |
| G36A A64G U108C | 0.29 |
| G36A A69G A117U | 0.59 |
| G36A A77G A136G | 1.9 |
| G36A A77G A142G | 2.16 |
| G36A A78G U102C A142G | 0.79 |
| G36A A78U U104C | 2.47 |
| G36A A129U U130A | 0.95 |
| G36A A140G A141G | 1.63 |
| G36A G106U A117G U132C | 1.2 |
| G36A U45C C76U | 2.34 |
| G36A U46C U87C | 0.06 |
| G36A U47C A141G | 0.33 |
| G36A U112A A117C A121G | 1.97 |
| G36C A42G A67G G80U G86A | 0.02 |

| Variant | self-cleavage |
| --- | --- |
| G36C A50U U81A | 1.46 |
| G36C A59U A69U | 0.03 |
| G36C A65G A117G A140G | 0 |
| G36C U45A A129G | 1.02 |
| G36C U45C U96G U134C | 0 |
| G36C U47C U134C | 2.06 |
| G36C U52C G60C A64G A67U U96A U104C U130C | 0 |
| G36C U62C A124G | 0 |
| G36C U73C U100C | 0 |
| G36C U87C U132C | 0.15 |
| G36C U130C A141U | 0.99 |
| G36U A42G U115A | 1.44 |
| G36U A43U U91C U115C A136G | 0.45 |
| G36U A59G A138G | 0.06 |
| G36U A64G A69G A79G | 0.07 |
| G36U A64U A77G A78G U112C | 0.52 |
| G36U A77G A107G | 2.17 |
| G36U G48A G49U | 1.84 |
| G36U U39A A64G U85C A92G | 0 |
| G36U U39A A138G | 1.3 |
| G36U U47C G106U U132A A136G | 1.3 |
| C37A A50G A65U U115A | 0.1 |
| C37A A64G A67U A69C | 0.03 |
| C37A A69G C113U A138G | 0.36 |

| Variant | self-cleavage |
| --- | --- |
| C37A A69G G72A A94G C103U U115C U130C A138U | 0 |
| C37A C95U A124G | 0.08 |
| C37A G55U U73A | 0.1 |
| C37A U39C G53A A59U A94U U108C A117C | 0.02 |
| C37A U39C U87A | 0.05 |
| C37A U73A U96A | 0.04 |
| C37A U108C U132C | 1.87 |
| C37G A42G U108C | 1.5 |
| C37G A57G A64U | 0.12 |
| C37G A57G G82A A94U U96A | 0.04 |
| C37G U46A A124G | 0.85 |
| C37G U46G U130C | 1.19 |
| C37G U73C G106A | 1.74 |
| C37G U96C U119C | 0 |
| C37G U109C U115A | 0.74 |
| C37U A42G A94G A140G | 0.27 |
| C37U A50G A57G A77G U115C | 0 |
| C37U A50U A57G A79G | 0.3 |
| C37U A50U U52C U143A | 1.13 |
| C37U A57U A79G A129G | 0.12 |
| C37U A65G U132C | 0.03 |
| C37U A78G U96A U104C A141G | 0.06 |
| C37U A92U U119C | 0.55 |
| C37U U39C A117C C146A | 1.15 |

| Variant | self-cleavage |
| --- | --- |
| C37U U46C U132C | 0.76 |
| C37U U62C C123U A124U | 0.03 |
| C37U U112C A124G | 0 |
| C37U U115C G126U | 0.9 |
| C37U U119C U130C | 1.95 |
| C38A A42G A136U | 2.16 |
| C38A A59G U62A | 0.05 |
| C38A A65G C71A | 0.04 |
| C38A A92G A121U | 0.09 |
| C38A A117U A121G | 1.43 |
| C38A G80U U87A C103U | 0.04 |
| C38A U52C A65G A79G | 0.31 |
| C38A U73C U132C | 1.95 |
| C38U A42G C99U | 1.74 |
| C38U A42G U102C U108A A124G | 1.48 |
| C38U A42U A67G U81A A142G | 0.49 |
| C38U A43G U96C | 0.21 |
| C38U A65U U96C A107G | 0 |
| C38U A67G U73A U104C A136U | 0.65 |
| C38U A69U G74A A78G | 0.03 |
| C38U A69U U104C | 0.02 |
| C38U A78G U104A U108C | 2.09 |
| C38U A138G C146A | 1.4 |
| C38U G58U G89A U104C | 0.01 |

| Variant | self-cleavage |
| --- | --- |
| C38U G75U A94C A142G | 0.03 |
| C38U G80A A140U | 1.97 |
| C38U G82A C99U A142G | 1.2 |
| C38U U39C A64C U130C | 0.26 |
| C38U U45C U52A | 1.01 |
| C38U U45G U81C G144A | 0.91 |
| C38U U46C A67G U87C | 1.72 |
| C38U U47A A78G | 1.07 |
| C38U U47C U73A A79G | 1.43 |
| C38U U52C A59G A77U U81C A121U | 0.13 |
| C38U U62C A79G U109A | 0 |
| C38U U73C U112C A136G | 0.78 |
| C38U U91A U104C | 1.1 |
| C38U U115C C128U | 1.67 |
| C38U U119A A136G | 1.68 |
| U39A A42G G86A | 0.05 |
| U39A A42G U47A | 0.54 |
| U39A A42G U96C C111U | 0.07 |
| U39A A42G U143C | 1.55 |
| U39A A43G U47C C61U | 0.04 |
| U39A A43G U87A | 0.1 |
| U39A A50G A69G A79G A142G | 0 |
| U39A A50U U112C | 0.39 |
